Results on 5 molecules are retold here after PMC9770150.

The chains behind the UniProt entries cited, without tags or fusion partners.
UniProt P35568: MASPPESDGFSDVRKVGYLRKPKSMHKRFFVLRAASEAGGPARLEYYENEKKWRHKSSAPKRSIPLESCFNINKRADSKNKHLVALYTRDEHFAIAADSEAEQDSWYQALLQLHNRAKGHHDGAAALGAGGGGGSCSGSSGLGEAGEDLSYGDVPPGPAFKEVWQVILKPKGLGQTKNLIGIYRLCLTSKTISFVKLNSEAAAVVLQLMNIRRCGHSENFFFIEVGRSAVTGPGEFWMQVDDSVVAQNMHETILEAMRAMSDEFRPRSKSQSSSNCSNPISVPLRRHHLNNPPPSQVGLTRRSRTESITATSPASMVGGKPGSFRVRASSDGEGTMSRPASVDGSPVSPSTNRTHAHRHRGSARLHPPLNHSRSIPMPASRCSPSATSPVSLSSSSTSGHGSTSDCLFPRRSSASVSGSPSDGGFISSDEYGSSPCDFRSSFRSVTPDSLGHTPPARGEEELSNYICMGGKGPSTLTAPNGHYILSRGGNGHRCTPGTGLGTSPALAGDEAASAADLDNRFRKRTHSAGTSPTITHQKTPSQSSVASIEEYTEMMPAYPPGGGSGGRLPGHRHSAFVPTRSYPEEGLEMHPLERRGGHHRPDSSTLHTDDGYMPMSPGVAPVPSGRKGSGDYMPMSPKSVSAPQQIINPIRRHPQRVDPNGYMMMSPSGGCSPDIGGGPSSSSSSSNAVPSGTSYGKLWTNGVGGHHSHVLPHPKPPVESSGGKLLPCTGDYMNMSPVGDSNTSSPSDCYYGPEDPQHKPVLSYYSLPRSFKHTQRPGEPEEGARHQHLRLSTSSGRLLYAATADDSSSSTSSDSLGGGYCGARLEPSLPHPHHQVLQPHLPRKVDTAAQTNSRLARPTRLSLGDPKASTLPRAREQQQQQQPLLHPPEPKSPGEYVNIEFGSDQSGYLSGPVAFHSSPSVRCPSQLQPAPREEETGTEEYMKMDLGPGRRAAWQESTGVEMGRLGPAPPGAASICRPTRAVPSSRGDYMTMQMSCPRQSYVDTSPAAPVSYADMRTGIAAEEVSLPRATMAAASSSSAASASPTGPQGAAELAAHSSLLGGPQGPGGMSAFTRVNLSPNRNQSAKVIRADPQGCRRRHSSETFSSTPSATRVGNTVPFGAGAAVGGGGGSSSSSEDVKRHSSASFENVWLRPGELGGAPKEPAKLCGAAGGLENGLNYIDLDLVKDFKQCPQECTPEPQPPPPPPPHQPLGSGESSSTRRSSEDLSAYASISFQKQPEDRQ

Read-outs that look alike come from different tables or passages of the source. These are yes or no findings as the source states them, for the method shown. For some assays here: In cells and extracts the contact can be indirect. Some binding calls cover weakened binding; strength is not graded here. For some assays here: Where a sequence is shown, tags or fusion partners need not be part of it.

Assay [1] addresses T1, CaV3-Myc (caveolin-3, Myc-tagged) (UniProt P56539).
T1 sequence: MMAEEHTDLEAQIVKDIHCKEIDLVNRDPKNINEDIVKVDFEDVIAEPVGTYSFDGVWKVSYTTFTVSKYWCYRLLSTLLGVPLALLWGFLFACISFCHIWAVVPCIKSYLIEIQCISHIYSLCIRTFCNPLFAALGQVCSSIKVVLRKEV
Kind of assay: co-IP; Flag-tagged MG53 (wild type or S255A) with p85-PI3K-Myc or CaV3-Myc in HEK293 cells.

In assay [2] the target is T2, Myc-tagged MG53-S255A mutant (human) (UniProt Q6ZMU5).
T2 sequence: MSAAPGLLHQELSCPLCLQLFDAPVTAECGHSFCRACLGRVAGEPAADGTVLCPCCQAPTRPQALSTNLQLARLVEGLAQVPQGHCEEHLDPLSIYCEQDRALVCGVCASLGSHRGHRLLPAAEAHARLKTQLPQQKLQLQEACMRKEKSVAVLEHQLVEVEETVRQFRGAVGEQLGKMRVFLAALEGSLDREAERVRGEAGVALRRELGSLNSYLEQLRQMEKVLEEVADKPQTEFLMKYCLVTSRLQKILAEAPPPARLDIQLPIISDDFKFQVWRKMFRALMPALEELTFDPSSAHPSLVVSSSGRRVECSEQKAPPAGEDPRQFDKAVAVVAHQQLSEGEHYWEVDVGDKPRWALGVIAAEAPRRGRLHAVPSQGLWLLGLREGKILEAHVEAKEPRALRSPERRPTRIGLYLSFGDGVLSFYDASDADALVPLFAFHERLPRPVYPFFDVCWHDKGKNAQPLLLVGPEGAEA
Nature of the assay: co-IP; IRS1 co-expressed with Myc-tagged MG53 (wild type or S255A) in HEK293 cells.

Assay [3] deals with IRS1 (insulin receptor substrate 1), immobilized on the SPR chip (UniProt P35568). Nature of the assay: SPR; IRS1 immobilized on the chip; MG53-WT or MG53-S255A injected at indicated concentrations; both purified. Background: Surface plasmon resonance follows binding to a sensor surface in real time, without labels.
Assay [4] concerns the target T1, CaV3-Myc (caveolin-3, Myc-tagged). Nature of the assay: co-IP; Flag-tagged MG53 (wild type or S255A) with p85-PI3K-Myc or CaV3-Myc in HEK293 cells. The source holds these as a separate data set.
Assay [5] has as its target IRS1 (insulin receptor substrate 1), immobilized on the SPR chip (UniProt P35568). Kind of assay: SPR; IRS1 immobilized on the chip; MG53-WT or MG53-S255A injected at indicated concentrations; both purified. The source holds these as a separate data set.

Regarding “Flag-tagged wild type MG53 (from UniProt Q6ZMU5 1-477)”, the binding entry in assay [1] is given as “binds”.

As for “IRS1 (insulin receptor substrate 1), co-expressed in HEK293 cells (from UniProt P35568 1-1242)”, in assay [2], the binding entry is “no binding”.

For “recombinant human MG53, wild type (rhMG53-WT) (from UniProt Q6ZMU5 1-477)”, in assay [3], the binding entry was “binds”.

B1: Flag-tagged S255A mutant of MG53 (protein, UniProt Q6ZMU5 1-477)
chain: MSAAPGLLHQELSCPLCLQLFDAPVTAECGHSFCRACLGRVAGEPAADGTVLCPCCQAPTRPQALSTNLQLARLVEGLAQVPQGHCEEHLDPLSIYCEQDRALVCGVCASLGSHRGHRLLPAAEAHARLKTQLPQQKLQLQEACMRKEKSVAVLEHQLVEVEETVRQFRGAVGEQLGKMRVFLAALEGSLDREAERVRGEAGVALRRELGSLNSYLEQLRQMEKVLEEVADKPQTEFLMKYCLVTSRLQKILAEAPPPARLDIQLPIISDDFKFQVWRKMFRALMPALEELTFDPSSAHPSLVVSSSGRRVECSEQKAPPAGEDPRQFDKAVAVVAHQQLSEGEHYWEVDVGDKPRWALGVIAAEAPRRGRLHAVPSQGLWLLGLREGKILEAHVEAKEPRALRSPERRPTRIGLYLSFGDGVLSFYDASDADALVPLFAFHERLPRPVYPFFDVCWHDKGKNAQPLLLVGPEGAEA
Consider B1, for which the binding result in assay [4] is “binds”.

B2: recombinant human MG53-S255A mutant (rhMG53-S255A) (protein, UniProt Q6ZMU5 1-477)
chain: MSAAPGLLHQELSCPLCLQLFDAPVTAECGHSFCRACLGRVAGEPAADGTVLCPCCQAPTRPQALSTNLQLARLVEGLAQVPQGHCEEHLDPLSIYCEQDRALVCGVCASLGSHRGHRLLPAAEAHARLKTQLPQQKLQLQEACMRKEKSVAVLEHQLVEVEETVRQFRGAVGEQLGKMRVFLAALEGSLDREAERVRGEAGVALRRELGSLNSYLEQLRQMEKVLEEVADKPQTEFLMKYCLVTSRLQKILAEAPPPARLDIQLPIISDDFKFQVWRKMFRALMPALEELTFDPSSAHPSLVVSSSGRRVECSEQKAPPAGEDPRQFDKAVAVVAHQQLSEGEHYWEVDVGDKPRWALGVIAAEAPRRGRLHAVPSQGLWLLGLREGKILEAHVEAKEPRALRSPERRPTRIGLYLSFGDGVLSFYDASDADALVPLFAFHERLPRPVYPFFDVCWHDKGKNAQPLLLVGPEGAEA
In the case of B2, the binding result in assay [5] is “no binding”.
